Data as given in PubChem BioAssay AID651820 (National Center for Advancing Translational Sciences (NCATS), 2012).
Out of some 340,000 compounds screened, about 12,000 (3.5%) were called active. The inconclusive results got no clear call from the source; some entries with a clear call stand among them for comparison. The call rests on the fitted dose curve; in most records, active means well fitted inhibition curve with a large enough effect; inconclusive means small, poorly fitted or top-dose-only effect, or another doubt; inactive means no such curve, though single readings can be large or run the other way. No potency is given beside an inconclusive call; the fits are too rough.

Test: qHTS Assay for Inhibitors of Hepatitis C Virus (HCV)
Details: Huh7.5.1 HCVcc-Cre (HCVcc is cell-culture hepatitis C virus) infection, luciferase reporter, 44 h; activity change, negative = inhibition: at 41.8 µM (top of the series)
Method in brief: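 Compounds are dispensed onto cells plated 4 h earlier at 1,000 per well, with HCVcc-Cre virus (about 0.5 moi) added next. Following 44 h of culture, luminescent signal is measured for 15 sec after 15 min with substrate at room temperature.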
On the % scale 0 is the no-effect control and ±100 the full control effect; potency means the concentration at half of the fitted maximal effect; tags describe the fitted curve by direction and shape.

| SMILES | Potency | activity change, negative = inhibition |
| --- | --- | --- |
| Cn1nc(-c2ccc(Cl)cc2)c2cc(C(=O)NCCCN3CCOCC3)sc21 | inconclusive [inhibitor, single point] |  |
| Cc1sc2nc(C3CC3)nc(SCC(=O)N3c4ccccc4CC3C)c2c1C (stereo not given) | active: 11.2 µM |  |
| Cc1ccc(CN2CC(C(=O)N3CC=C(c4ccccc4)CC3)CC2=O)cc1 (stereo not given) | inconclusive [inhibitor, single point] |  |
| Cc1ccc(C)c(NC(=O)c2ccc(OCc3c(C)noc3C)cc2)c1 | inconclusive [inhibitor, single point] |  |
| CC(=O)C(=Cc1cn(-c2ccccc2)nc1-c1ccccc1)C(C)=O | inconclusive [inhibitor, single point] |  |
| O=C(COc1ccccc1)Nc1nc2cc3c(cc2s1)OCO3 | inconclusive [inhibitor, partial curve] |  |
| Cc1ccc(C(=O)N/C(=C\c2ccc(Br)cc2)c2nc(=S)[nH][nH]2)cc1 |  | inactive: 26.3% |
| C=C[C@@H]1c2cc(C)ccc2N(S(=O)(=O)c2ccc(C)cc2)[C@H](c2ccccc2)C1(C#N)S(=O)(=O)c1ccccc1 (stereo not given in full) | inconclusive [inhibitor, single point] |  |
| COc1ccc(C(=O)NCC(=O)OCC(=O)N2N=C(c3ccc(Cl)cc3)CC2c2ccco2)cc1OC (stereo not given) |  | inactive: -1.85% |
| Cc1cc(C)c(S(=O)(=O)NCc2nc3nc(C)cc(C)n3n2)c(C)c1 |  | inactive: 2.32% |
| Cc1ccc2[nH]cc(/C=C/c3cc[n+](C)cc3)c2c1 | inconclusive [inhibitor, full curve] |  |
| O=S(=O)(N1CCCCC1)N1CCN(CC(O)COc2ccc3cc(Br)ccc3c2)CC1 (stereo not given) | inconclusive [inhibitor, partial curve] |  |
| COc1ccc(N(C(=O)c2ccccc2C)S(=O)(=O)c2cccs2)cc1 | inconclusive [inhibitor, partial curve] |  |
| COc1ccc(C(=O)C2CCN(C(=O)c3ccc(C)cc3)CC2)cc1 | inconclusive [inhibitor, single point] |  |
| Cc1cc(=O)n2[nH]c(C)c(-c3ccc(Cl)cc3)c2n1 | inconclusive [inhibitor, single point] |  |
| COc1cccc(/C=C2\SC(=S)N(CCC(=O)NNC(=O)c3ccccc3OC)C2=O)c1 | inconclusive [inhibitor, full curve, poor fit] |  |
| Cc1ccc(S(=O)(=O)N2CCCCC2)cc1C(=O)N(C)CC(=O)Nc1ccc(Cl)c(C(F)(F)F)c1 | inconclusive [inhibitor, single point] |  |
| CCn1nc(NC(=O)c2ccco2)c2cc3ccc(C)cc3nc21 | active: 10 µM |  |
| O=C(Nc1ccccc1C(=O)N1CCN(c2cccc(Cl)c2)CC1)C1=CSCCO1 | inconclusive [inhibitor, single point] |  |
| COc1ccc([N+](=O)[O-])cc1NC(=O)CC(C)c1ccccc1 (stereo not given) | inconclusive [inhibitor, single point] |  |
| Cc1ccc(C(=O)Nc2ccc(Cl)cn2)cc1S(=O)(=O)N1CCOCC1 | inconclusive [inhibitor, single point] |  |
| COc1ccc(C(=O)OCc2ccc(C)cc2)cc1S(=O)(=O)N1CCOCC1 | inconclusive [inhibitor, full curve] |  |
| O=C(CSCc1ccc([N+](=O)[O-])cc1)N/N=C/c1cccnc1 |  | inactive: -10% |
| CC(C)C(C(=O)NCc1ccco1)N(C(=O)CNS(=O)(=O)c1ccccc1)c1ccccc1 (stereo not given) |  | inactive: 2.7% |

| SMILES | Potency | activity change, negative = inhibition |
| --- | --- | --- |
| CN1Cc2ccccc2-n2nncc2C1 |  | inactive: 29.7% [at 8.37 µM] |
| CN1CCN(C(=O)c2ccc3c(c2)NC(=O)/C(=C/c2ccccc2)S3)CC1 | active: 11.2 µM |  |
| COc1cc(/C=N/Nc2nn3cnnc3c3ccccc23)ccc1O |  | inactive: 27.2% |
| CCOc1cc(CNCCCN2CCOCC2)cc(Br)c1OCc1ccccc1Cl | active: 3.55 µM |  |
| CCCCNc1nc2ccccc2nc1Cl |  | inactive: -13.2% |
| Cc1ccc(C)c(S(=O)(=O)NCC(c2ccco2)N2CCc3ccccc3C2)c1 (stereo not given) |  | inactive: -17.7% |
| Cc1ccc(C2C(C(=O)c3sc(C)nc3C)=C(O)C(=O)N2CCN(C)C)o1 (stereo not given) |  | inactive: 8.19% |
| COc1cc(C(=O)OCC(=O)Nc2ccc(OC(F)F)cc2)cc(OC)c1OC | inconclusive [inhibitor, single point] |  |
| Cc1sc2ncnc(NCc3ccccc3)c2c1C | active: 5.62 µM |  |
| CCCCN(CCCNC(=O)Cn1nc(CC)n2c(cc3sc(C)cc32)c1=O)Cc1ccccc1 | active: 8.91 µM |  |
| COc1ccc(-c2cc(C(=O)OCC(=O)N(C)C)c3ccccc3n2)cc1 | inconclusive [inhibitor, single point] |  |
| CC(Sc1n[nH]c(N)n1)C(=O)C12CC3CC(CC(C3)C1)C2 (stereo not given) |  | inactive: 16.5% |
| O=C(/C=C/c1ccccc1)c1ccccn1 |  | inactive: 6.79% |
| Cc1[nH]nc(-c2ccc(O)cc2O)c1-c1nc2ccccc2s1 | inconclusive [inhibitor, single point] |  |
| Cc1ccc(C)c(N2CCN(C(=O)CCCCn3c(=O)[nH]c4ccccc4c3=O)CC2)c1 | inconclusive [inhibitor, single point] |  |
| O=C(CSc1nc(-c2ccco2)cc(C(F)(F)F)n1)Nc1ccccc1C(F)(F)F | inconclusive [inhibitor, full curve] |  |
| COc1cc2[nH]c(C(=O)NCc3ccccc3)cc2c(OC)c1OC | inconclusive [inhibitor, partial curve] |  |
| COc1ccc(CN(C#N)c2nc(SC)nc(N(C)C)n2)cc1 | inconclusive [inhibitor, single point] |  |
| Cc1cccc(-c2n[nH]c(=S)n2Cc2ccccc2)c1 |  | inactive: 0.804% |
| O=C(Nc1ccc2c(c1)OCCO2)c1ccc(Br)s1 | inconclusive [inhibitor, partial curve] |  |
| COc1c(Cl)cc(Cl)cc1/C=C/C(=O)c1ccc(NC(=O)c2cccs2)cc1 | active: 14.1 µM |  |
| COc1ncccc1-c1nnn(-c2ccc(C)cc2)n1 | inconclusive [inhibitor, single point] |  |
| Cc1ccc(O)c(C2=NNC(c3ccc(Cl)cc3)C2)c1 (stereo not given) | inconclusive [inhibitor, partial curve] |  |
| Cc1ccc(C(=O)Nc2c(-c3cccs3)c(=O)c3ccccc3n2C)cc1 | inconclusive [inhibitor, single point] |  |

| SMILES | Potency | activity change, negative = inhibition |
| --- | --- | --- |
| COc1ccc(/C=C2\SC(=O)N(CCC(=O)N3CCCCC3CCO)C2=O)cc1 (stereo not given) | inconclusive [inhibitor, single point] |  |
| Cc1ccc(NC(=O)CSc2ccc(-c3cccnc3)nn2)cc1 | inconclusive [inhibitor, single point] |  |
| CCOc1ccc(OCCCC(=O)Nc2cc(S(=O)(=O)N3CCOCC3)ccc2N2CCOCC2)cc1 | inconclusive [inhibitor, single point] |  |
| Cc1cccc(C)c1NC(=O)c1ccc([N+](=O)[O-])s1 | active: 10 µM |  |
| O=C(NC(c1ccccc1)c1ccccc1)c1cccc(S(=O)(=O)NCc2ccccc2)c1 |  | inactive: -6.16% |
| Cc1ccccc1Cn1nnc(-c2ccc(C(=O)O)cc2)n1 |  | inactive: 6.01% |
| COc1ccc(CNC(=O)C(c2ccco2)N(C(=O)c2ccccn2)c2ccccc2)cc1 (stereo not given) |  | inactive: -21.1% |
| COc1cc(-c2noc(CCC(=O)NC3CCCCC3)n2)cc(OC)c1OC | inconclusive [inhibitor, single point] |  |
| COc1ccc(-c2cnc(OC(C)(C)C)nc2OC(C)(C)C)cc1OC | inconclusive [inhibitor, single point] |  |
| CCOC(=O)C1CCN(c2ccccc2CN2CCN(c3ccccc3OCC)CC2)CC1 | inconclusive [inhibitor, single point] |  |
| CC1(c2ccc3noc(-c4ccccc4)c3c2)OCCO1 | inconclusive [inhibitor, partial curve] |  |
| Cn1c(N)c(C(=O)COC(=O)COc2ccccc2C#N)c(=O)n(C)c1=O |  | inactive: 3.52% |
| CCOC(=O)c1cc2c(=O)n3ccccc3nc2n(CCCOC)c1=NC(=O)C(C)(C)C | inconclusive [inhibitor, full curve] |  |
| COc1ccc(-c2csc(NC(=O)CSCc3c(C)noc3C)n2)cc1OC | inconclusive [inhibitor, partial curve] |  |
| CCOC(=O)C(=CNc1ccc(Oc2cccnc2)nc1)C(=O)OCC | inconclusive [inhibitor, partial curve, poor fit] |  |
| Cc1ccc(-c2nnc3ccc(SCC(=O)N4CCCc5ccccc54)nn23)cc1 | inconclusive [inhibitor, full curve, poor fit] |  |
| CC1CN(c2ncnc3c2oc2ccccc23)CC(C)O1 (stereo not given) | inconclusive [inhibitor, full curve, poor fit] |  |
| Cc1ccccc1Nc1nc(N)nc(COC(=O)c2c(C)noc2C)n1 | inconclusive [inhibitor, single point] |  |
| CCCCCCCCC(=O)N/N=C(\C)c1ccc(O)cc1O | inconclusive [inhibitor, single point] |  |
| O=C(NC1CCN(Cc2ccc(Cl)c(Cl)c2)CC1)c1ccccc1 | inconclusive [inhibitor, single point] |  |
| Cc1nnc(SCC(=O)Nc2ccc3c(c2)OCCO3)n1CC1CCCO1 (stereo not given) |  | inactive: 8.14% |
| CC(C)(C)c1ccc(-n2ncc3c2CCCC3NC(=O)CCN2CCCCC2=O)cc1 (stereo not given) | inconclusive [inhibitor, partial curve] |  |
